Test results from PubChem BioAssay AID488969 (Vanderbilt High Throughput Screening Facility, 2010).
Over roughly 110,000 compounds, “z-score” has its median near -0.1; the highest 2% begin near 2. Some of the results follow. Activity calls are given as the source filed them.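 Rule for the calls: active = z-score in the third read window above 3 or below -3; inactive = the rest.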

Biological target: Metabotropic glutamate receptor 8 (Rattus norvegicus) (UniProt P70579)
Test: mGluR8 Gi/Go-coupled signaling modulation – cell-based, rat, thallium flux, HTS, primary screen (AID 488969)
Conditions: HEK293 rat mGluR8, GIRK (G protein-gated inwardly rectifying potassium channel) thallium flux, FluoZin2; at 10 µM; stronger effect = higher value; submaximal glutamate (EC20) added with thallium

Chain of UniProt P70579 (P70579 whole entry, looked up): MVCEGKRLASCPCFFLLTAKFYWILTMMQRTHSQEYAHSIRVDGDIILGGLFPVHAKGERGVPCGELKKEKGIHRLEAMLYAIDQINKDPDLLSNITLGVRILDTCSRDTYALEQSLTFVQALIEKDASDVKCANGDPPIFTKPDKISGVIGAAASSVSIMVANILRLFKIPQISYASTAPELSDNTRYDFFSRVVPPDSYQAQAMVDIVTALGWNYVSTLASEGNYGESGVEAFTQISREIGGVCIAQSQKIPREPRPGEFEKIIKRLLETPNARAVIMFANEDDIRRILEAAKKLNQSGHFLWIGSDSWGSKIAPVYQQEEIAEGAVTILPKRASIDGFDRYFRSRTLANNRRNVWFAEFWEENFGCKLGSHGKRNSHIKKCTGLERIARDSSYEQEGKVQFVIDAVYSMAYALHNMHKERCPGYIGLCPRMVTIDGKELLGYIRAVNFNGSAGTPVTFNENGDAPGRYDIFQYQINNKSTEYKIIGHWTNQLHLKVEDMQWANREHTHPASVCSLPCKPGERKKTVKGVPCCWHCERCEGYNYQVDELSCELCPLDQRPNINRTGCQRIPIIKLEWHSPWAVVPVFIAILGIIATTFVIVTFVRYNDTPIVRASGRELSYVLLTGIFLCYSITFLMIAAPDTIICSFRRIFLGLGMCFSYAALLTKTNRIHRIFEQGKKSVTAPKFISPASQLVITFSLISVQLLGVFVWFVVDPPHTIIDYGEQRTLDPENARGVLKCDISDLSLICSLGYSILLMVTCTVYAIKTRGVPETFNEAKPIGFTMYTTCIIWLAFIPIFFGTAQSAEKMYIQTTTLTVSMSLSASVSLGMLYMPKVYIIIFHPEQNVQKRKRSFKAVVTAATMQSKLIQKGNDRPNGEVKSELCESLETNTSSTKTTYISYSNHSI

Row | Compound | z-score
1 | COc1ccc(NC(=O)CCc2nc(-c3ccc(C)cc3)no2)cc1Cl | 0.344
2 | COCCCNC(=O)c1ccc([N+](=O)[O-])c(Cl)c1 | -1.54
3 | COc1cccc(C(=O)NNC(=O)c2ccccc2Br)c1 | -0.445
4 | CCOc1ccccc1NC(=O)CSc1nnnn1Cc1ccccc1 | 0.272
5 | CC1CCN(S(=O)(=O)c2ccc3[nH]cc(C(=O)NCCN4CCOCC4)c(=O)c3c2)CC1 | -0.272
6 | Cc1occc1C(=O)NCc1cccc(CNC(=O)c2ccoc2C)c1 | -0.164
7 | Cc1nc2cc(Nc3nnc(-c4ccccc4)c4ccccc34)ccc2n1C | -0.174
8 | Cc1csc2ncc(C(=O)NCCc3ccccc3)c(=O)n12 | -0.247
9 | c1cc(-c2noc(CCC3CCCC3)n2)ccn1 | 0.256
10 | O=C(CSc1nc(O)cc(=O)[nH]1)N1CCCc2ccccc21 | -0.65
11 | c1csc(-c2csc(-c3cccs3)n2)c1 | -0.241
12 | CCCCOc1ccc(C(=O)Nn2c(-c3cccs3)nc3ccccc3c2=O)cc1 | 0.0501
13 | O=C(NC(=S)Nc1ccc(NC(=O)c2cccs2)cc1)c1cc2ccccc2o1 | 0.0528
14 | CC(C)COc1cccc(C(=O)Nc2ccc(S(=O)(=O)N3CCOCC3)cc2)c1 | -0.473
15 | COc1ccc(-n2c(C)c([N+](=O)[O-])c3ccc(O)c(CN4CCCCC4)c32)cc1 | -0.457
16 | CCN(CC)C1=N/C(=C\c2ccco2)C(=O)N1c1ccccc1 | -0.386
17 | CCOC(=O)c1sc(=S)n(-c2ccccc2Cl)c1SC | -0.296
18 | Cc1c(C(=O)N2CCCCC2)sc(NC(=O)C2CC2)c1C#N | 0.0411
19 | CCOc1ccc(NC(=O)Cn2nnc(-c3ccccc3NC(=O)C3CC3)n2)cc1 | -0.104
20 | CC(C)N(CCc1ccncc1)C(=O)Nc1ccc(Cl)c(Cl)c1 | -0.239
21 | COc1ccc(C(=O)Nc2nncs2)cc1S(=O)(=O)N1CC(c2ccccc2)CC1=O (stereo not given) | -0.158
22 | CC(=O)CC(=O)Nc1ccc(Nc2ccccc2)cc1 | -0.163
23 | Cc1ccc(C(=O)NC(=S)/C=C2\N(C)c3ccccc3C2(C)C)cc1 | 2.66
24 | COc1ccc(CNC(=O)NC2CCCCC2)cc1 | -0.0515
25 | Cc1ccc(NC=C(S(=O)(=O)c2ccccc2)S(=O)(=O)c2ccccc2)cc1 | 0.144

Row | Compound | z-score
26 | Cc1cc(N2CCCC2)c(C)cc1C=O | 0.209
27 | COc1ccc(S(=O)(=O)Nc2cc(C(=O)NCCC(C)C)ccc2N2CCOCC2)cc1 | -0.204
28 | COc1ccccc1NC(=O)/C(C#N)=C/c1cc([N+](=O)[O-])ccc1N1CCCC1 | -0.225
29 | COc1ccc(OC)c2[nH]c(=O)c(CCNC(=O)C3CCCCC3)cc12 | -0.1
30 | CC12CCC(C(=O)NCCN3CCCCC3)(CC1=O)C2(C)C (stereo not given) | -0.0355
31 | CC(C)Nc1nc(Oc2ccc(Cl)cc2)cc(C(F)(F)F)n1 | 0.0405
32 | CCc1c(O)cc2n(c1=O)-c1ccc(Cl)cc1C2(C)C | -0.0574
33 | O=C1CC(c2ccc3c(c2)OCO3)CN1 (stereo not given) | -0.0955
34 | Cc1nc2ccc(C(=O)c3ccccc3)cc2[nH]1 | -0.261
35 | CN1CCCCc2c1[nH]c1ccccc1c2=O | -0.219
36 | COc1ccccc1C(=O)N1CCN(S(=O)(=O)c2ccccc2)CC1 | -0.543
37 | Cc1cnc(C(=O)Nc2nnc(C3CC3)s2)cn1 | -0.105
38 | O=C(CSc1nnc(Nc2ccccc2)s1)Nc1cccnc1Cl | 1.36
39 | Cc1nn(C)c(C)c1S(=O)(=O)N(CC(=O)NCCCOC(C)C)c1ccc(C(C)C)cc1 | -0.0899
40 | CC(=O)c1c(N2CCCC2)[nH]c(-c2ccccc2)nc1=S | active: 14.8
41 | COc1ccc(C(=O)n2nc(-c3ccc(OC)cc3)nc2N)cc1 | -0.148
42 | O=C(Nc1cc(N2CCOCC2)ncn1)NC1(C(F)(F)F)Oc2ccccc2O1 | -0.355
43 | COc1ccc(NC(=O)C(NC(=O)c2ccc(=O)[nH]c2)c2ccc(OC)cc2)cc1 (stereo not given) | -0.021
44 | CCOC(=O)C1=NN(c2ccccc2)C2(S1)SC(C(C)=O)=C(C)N2c1ccccc1 (stereo not given) | -0.0461
45 | COc1ccc2nc(/N=C\N(C)C)sc2c1 | 0.401
46 | CCC(=O)N1CCc2cc(S(=O)(=O)NCCC(=O)N3CC=C(c4ccccc4)CC3)ccc21 | 0.571
47 | O=C(c1cc2cc(Cl)ccc2oc1=O)N1CCOCC1 | -0.215
48 | CCCSc1nc(C)cc(=O)[nH]1 | 0.53
49 | Fc1ccc(CSc2nnc(CN3CCOCC3)n2-c2ccccc2)c(Cl)c1 | 0.402
50 | O=C(NCCC1=CCCCC1)NC1CCCCC1 | 0.424

Row | Compound | z-score
51 | COc1cccc(NC(=O)Cc2nnc(SCC(=O)NC(C)c3ccccc3)n2C)c1 (stereo not given) | -0.192
52 | COc1ccc(C(=O)NCCCN2CCCC2=O)cc1 | -0.241
53 | CC1CCN(C(=O)Cn2c(=O)n(CCc3ccccc3)c(=O)c3ccccc32)CC1 | -0.669
54 | CCC1(C)C(Nc2c(C)cccc2C)=NC(=S)N1c1ccc(NC(C)=O)cc1 (stereo not given) | -0.38
55 | CCN(CC)S(=O)(=O)c1ccc2c(c1)c(C(=O)O)cn2C | 0.106
56 | CCCn1c(C)cc(/C=C(\C#N)C(=O)OCC(=O)Nc2cccc(OC)c2)c1C | active: 3.42
57 | O=c1c2ccccc2nnn1CSc1nnc(-c2cccc(S(=O)(=O)N3CCCCC3)c2)o1 | -1.01
58 | CCOC(=O)c1ccc(CNC(=O)CSc2nnnn2-c2ccc(Cl)cc2)o1 | -1.07
59 | COc1cc(/C=C2/SC(=NCc3ccccc3)N(Cc3ccccc3)C2=O)ccc1O | -0.176
60 | CCOc1ccccc1NC(=S)N1CCC(c2nc3ccccc3o2)CC1 | -0.329
61 | CCc1ccccc1NC(=O)NC1CC2CCC(C1)N2Cc1cccs1 (stereo not given) | 0.0467
62 | CC(C)CNC1=C(C(=S)Nc2ccccc2)C(=O)CC(C)(C)C1 | -0.182
63 | CCCCCCSC1=C(C#N)C(c2ccccc2)CC(=O)N1 (stereo not given) | -0.195
64 | CC(NC(=O)/C(C#N)=C1\N=C(NC(=O)c2cccs2)c2ccccc21)c1ccccc1 (stereo not given) | -0.208
65 | COC(=O)C(C)Sc1nc(-c2ccc(OC)cc2)nc2c1c(=O)n(C)c(=O)n2C (stereo not given) | -0.526
66 | Cn1c(=O)[nH]c(=O)c2c1nc(Br)n2CCCc1ccccc1 | -0.728
67 | CCOC(=O)c1[nH]c2ccccc2c1NC(=O)CC | -0.0151
68 | COc1ccc(CCN(C(=O)c2cccc(F)c2)C2CC(=O)N(c3ccccc3)C2=O)cc1 (stereo not given) | -0.316
69 | Cc1nn(CC(=O)Nc2ccncc2)c(C)c1[N+](=O)[O-] | -0.163
70 | CCOc1ccc(C(=O)Nc2nnc(C(C)C)s2)cc1OCC | -0.409
71 | C/C(CC(O)(/C=N/O)c1ccccc1)=N\O (stereo not given) | 0.616
72 | O=C(NCCCN1CCC(Cc2ccccc2)CC1)C1CC(=O)N(C2CCCCCC2)C1 (stereo not given) | 1.25
73 | COC(=O)C1=C(C)N(CC2CCCO2)C(=O)/C1=C\c1ccc(O)cc1 (stereo not given) | -0.287
74 | Cc1ccc(-n2nc3c4c(cccc4c2=O)-c2ccccc2-3)cc1 | -0.376
75 | Cc1cc(S(=O)(=O)NC(C)C)ccc1OCC(=O)N1CCOCC1 | 0.0382

Row | Compound | z-score
76 | Cc1cccc(NC(=O)COC(=O)CNC(=O)C2CCCCC2)c1 | -0.152
77 | CCOC(=O)c1c(NC(=O)CN2C(=O)NC3(CCCCC3)C2=O)sc(C)c1-c1ccc(C)cc1 | -0.457
78 | Cc1c(-c2ccc(F)cc2)[n+](=O)c(-c2ccc(F)cc2)c(C)n1[O-] | -0.375
79 | CC(=O)c1ccc(C#CC(C)(C)O)s1 | 0.559
80 | O=C(Nc1ccc(N2CCCC2)c(Cl)c1)c1ccc(Br)o1 | 1.42
81 | Nc1[nH]c(N=NC(=O)c2ccccc2)c2ccccc12 | 0.0552
82 | CC(C)CNC(=O)c1ccccc1Oc1ccccc1 | -0.334
83 | CC(C)c1nnc(SCC(=O)NCCC2=CCCCC2)n1N | -0.0723
84 | Cc1cc(C)c2c(=O)c3c(oc2c1)C(=O)N(CCO)C3c1cccc(O)c1 (stereo not given) | -0.166
85 | COc1ccc(C(=O)NCCC(C)C)cc1S(=O)(=O)N1CCOCC1 | 0.859
86 | O=C(CN1CCN(c2ccc(O)cc2)CC1)Nc1cc(S(=O)(=O)N2CCOCC2)ccc1Cl | 0.903
87 | CC(=O)Nc1cc(C(=O)O)ccc1S(=O)(=O)c1ccc(Cl)cc1 | 0.886
88 | CNc1nc(Sc2cccc(C(F)(F)F)c2)cc(C(F)(F)F)n1 | 0.018
89 | CCOC(=O)c1cccc(NS(=O)(=O)c2c(C)[nH]c(=O)[nH]c2=O)c1 | -0.0134
90 | CCc1cc(=O)oc2cc(C)c(CN3CCCC(C)C3)c(O)c12 (stereo not given) | -2.82
91 | Cc1cccc(NC(=O)c2cc(N3C(=O)CCC3=O)ccc2Cl)n1 | -0.0664
92 | NC(=O)c1cccnc1Oc1cccc(Cl)c1 | 0.168
93 | CS(=O)(=O)N1CCC(C(=O)Nc2ccc(Br)cc2F)CC1 | 0.0621
94 | O=C(O)C1Cc2ccccc2CN1S(=O)(=O)c1ccc2ccccc2c1 (stereo not given) | -0.221
95 | Cc1cccc(C(=O)Oc2ccccc2/C=N/Nc2ccc([N+](=O)[O-])cc2)c1 | -0.206
96 | c1ccc(N2CCN(c3ncnc4scc(-c5cccs5)c34)CC2)cc1 | 0.34
97 | O=C(c1ccccc1)c1ccccc1N/C=C/c1nnnn1-c1ccccc1 | -0.0671
98 | Cc1cc(NC(=O)CCC(=O)N(CC(=O)NCC2CCCO2)c2ccc3c(c2)OCCO3)no1 (stereo not given) | -0.0148
99 | CCNC(=O)NC(=O)C(C)Sc1nnc(COc2ccccc2Cl)o1 (stereo not given) | -1.08
100 | Cn1nc(C(F)(F)F)c(/C=N/OCc2c(Cl)cccc2Cl)c1Cl | 0.0257
